{
  "source": "PubChem BioAssay AID720708",
  "about": "(National Center for Advancing Translational Sciences (NCATS), 2013)",
  "note": "About 660 (0.18%) of roughly 360,000 compounds were called active. The shares of active, inactive and inconclusive entries below differ from those in the screen. Calls come from the whole dose curve; as a rule, active = well fitted inhibition curve with a large enough effect; inconclusive = small, poorly fitted or top-dose-only effect; inactive = no such curve, though single readings can be large or run the other way. A potency beside an inconclusive call is a rough fit, not a confirmed value. % is set by controls: 0 for no effect and ±100 for the full control effect; potency is the fitted concentration of half-maximal effect; tags give direction and shape of the fitted curve.",
  "data": [
    {"target": "Rap guanine nucleotide exchange factor 4 (Homo sapiens) (UniProt Q8WZA2)", "sequence (Q8WZA2 whole entry, looked up)": "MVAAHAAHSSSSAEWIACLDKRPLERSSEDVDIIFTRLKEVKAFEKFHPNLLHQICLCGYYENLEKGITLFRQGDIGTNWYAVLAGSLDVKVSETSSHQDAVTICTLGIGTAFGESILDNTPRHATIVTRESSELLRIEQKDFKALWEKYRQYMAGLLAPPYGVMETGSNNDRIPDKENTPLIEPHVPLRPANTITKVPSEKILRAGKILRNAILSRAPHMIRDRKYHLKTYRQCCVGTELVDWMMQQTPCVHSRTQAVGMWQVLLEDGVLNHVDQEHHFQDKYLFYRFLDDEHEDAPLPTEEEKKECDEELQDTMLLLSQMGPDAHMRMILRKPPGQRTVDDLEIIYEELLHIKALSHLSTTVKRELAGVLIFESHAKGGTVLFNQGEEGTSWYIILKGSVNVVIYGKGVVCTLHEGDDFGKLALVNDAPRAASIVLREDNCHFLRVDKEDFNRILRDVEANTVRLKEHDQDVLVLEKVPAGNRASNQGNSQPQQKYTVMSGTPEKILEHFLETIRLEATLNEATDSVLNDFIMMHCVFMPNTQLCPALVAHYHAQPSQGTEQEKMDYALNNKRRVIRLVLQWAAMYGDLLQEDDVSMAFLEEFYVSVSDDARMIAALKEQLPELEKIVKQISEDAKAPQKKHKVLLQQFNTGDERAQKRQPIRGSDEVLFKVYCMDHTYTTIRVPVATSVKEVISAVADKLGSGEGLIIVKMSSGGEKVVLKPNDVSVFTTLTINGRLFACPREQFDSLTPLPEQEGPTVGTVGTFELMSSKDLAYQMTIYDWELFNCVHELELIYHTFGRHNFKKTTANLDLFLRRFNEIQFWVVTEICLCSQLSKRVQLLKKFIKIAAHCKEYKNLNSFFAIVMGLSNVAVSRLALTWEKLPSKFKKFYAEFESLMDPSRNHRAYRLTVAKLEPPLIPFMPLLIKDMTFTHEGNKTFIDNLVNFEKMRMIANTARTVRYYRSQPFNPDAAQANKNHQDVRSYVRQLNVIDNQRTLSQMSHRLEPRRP", "assay": "qHTS for Antagonist of cAMP-regulated guanine nucleotide exchange factor 2 (EPAC2): primary screen; note: nearly all actives have a fitted effect of over 45% in size", "conditions": "EPAC2 GEF exchange of Rap1B-BODIPY-GDP, fluorescence; activity, negative = inhibition: at 114 µM (top of the series) unless noted", "values": [
      {"smiles": "Cc1ccc(NC(=S)N/N=C/c2ccc([N+](=O)[O-])s2)cc1", "Potency": "inactive"},
      {"smiles": "COc1ccc(S(=O)(=O)N2CCCCC2c2cc(C(=O)Nc3ccccc3Cl)no2)cc1", "note": "(stereo not given)", "Potency": "inconclusive: 100 µM [inhibitor, single point]"},
      {"smiles": "CN(CC(=O)Nc1ccc(Cl)c(C(F)(F)F)c1)C(=O)c1ccc(OCC2CCCO2)cc1", "note": "(stereo not given)", "Potency": "inconclusive: 56.2 µM [inhibitor, partial curve]"},
      {"smiles": "COC(=O)C1=C(CCc2ccccc2)NC(=O)NC1c1ccc(Cl)cc1", "note": "(stereo not given)", "Potency": "inconclusive: 89.1 µM [inhibitor, single point]"},
      {"smiles": "O=C(c1ccccc1)C1N=NCC1c1ccc(Cl)cc1", "note": "(stereo not given)", "Potency": "inconclusive: 44.7 µM [inhibitor, partial curve]"},
      {"smiles": "COc1ccc(OC)c(C2C3=C(N=c4s/c(=C\\c5cccc(O)c5)c(=O)n42)c2ccccc2CC3)c1", "note": "(stereo not given)", "Potency": "inconclusive: 100 µM [inhibitor, single point]"},
      {"smiles": "CN1c2ccccc2N(C)C1(C)c1ccccc1", "Potency": "inactive"},
      {"smiles": "COC(=O)c1ccc(C(=O)N2CCCC(C)(C(=O)NS(=O)(=O)C3CC3)C2)cc1", "note": "(stereo not given)", "Potency": "inactive"},
      {"smiles": "O=C(Nc1ccc(Cl)c(Cl)c1)Nc1nnc(CSc2ccccc2)s1", "Potency": "inconclusive: 39.8 µM [inhibitor, partial curve]"},
      {"smiles": "CC(C)(C)c1cc(NC(=O)c2cccnc2)no1", "Potency": "inactive"},
      {"smiles": "Brc1cnc2ccccc2c1N1CCCCC1", "Potency": "inconclusive: 31.6 µM [inhibitor, full curve, poor fit]"},
      {"smiles": "COc1ccccc1NS(=O)(=O)c1cc(NC(=O)C2CCCC2)ccc1N1CCOCC1", "Potency": "inconclusive: 28.2 µM [inhibitor, single point]"},
      {"smiles": "COc1ccccc1NC(=O)CNC(=O)CC12CC3CC(CC(C3)C1)C2", "Potency": "inactive"},
      {"smiles": "COC(=O)c1c(NC(=O)c2cnccn2)sc2c1CCC2", "Potency": "inconclusive: 100 µM [inhibitor, single point]"},
      {"smiles": "CCCCC[C@H](O)/C=C/C1C(=O)C=C[C@H]1C/C=C\\CCCC(=O)OC", "note": "(stereo not given in full)", "Potency": "inconclusive: 50.1 µM [inhibitor, partial curve]"},
      {"smiles": "C[C@H](c1ccccc1)N1C[C@H](COCc2ccccc2)Oc2cc(N3CC[C@@H](O)C3)ccc2S1(=O)=O", "Potency": "inconclusive: 15 µM [inhibitor, full curve, poor fit]"},
      {"smiles": "CC(C)(C)C(=O)c1cnc(Nc2ccccc2)s1", "activity, negative = inhibition": "inconclusive: -33.1% [inhibitor] [at 11.6 µM]"},
      {"smiles": "Cc1c(CCC(=O)NCCC(=O)O)c(=O)oc2c(C)c3oc4c(c3cc12)CCCC4", "Potency": "inconclusive: 79.4 µM [inhibitor, partial curve]"},
      {"smiles": "S=c1[nH]nc(-c2ccc(Cl)cc2)n1-c1ccc(Cl)cc1", "Potency": "inactive"},
      {"smiles": "Cc1cccc(Oc2ccc(Cl)cc2N)c1", "Potency": "inconclusive: 100 µM [inhibitor, single point]"},
      {"smiles": "O=C(NNc1cccc(Cl)n1)c1cccnc1Cl", "Potency": "inactive"},
      {"smiles": "C=C1c2cccc(C(F)(F)F)c2O[C@H](C(=O)OCC)[C@H]1OC", "Potency": "inconclusive: 44.7 µM [inhibitor, partial curve]"},
      {"smiles": "N#C/C(=C/c1cccn1-c1cccc(C(=O)O)c1)c1ccc(F)cc1", "Potency": "inconclusive: 35.5 µM [inhibitor, partial curve]"},
      {"smiles": "Cn1cc(C(C[N+](=O)[O-])c2ccccc2)c2ccccc21", "note": "(stereo not given)", "Potency": "inconclusive: 50.1 µM [inhibitor, partial curve]"},
      {"smiles": "CCc1cccc(C)c1N=Cc1c(O)c2ccccc2oc1=O", "Potency": "inconclusive: 25.1 µM [inhibitor, full curve]"},
      {"smiles": "CCCc1ccc(C(O)c2ncc(-c3ccccc3)[nH]2)cc1", "note": "(stereo not given)", "Potency": "inconclusive: 3.16 µM [inhibitor, full curve, poor fit]"},
      {"smiles": "O=C(Cn1ccccc1=S)c1ccc(Cl)c(Cl)c1", "Potency": "inconclusive: 56.2 µM [inhibitor, partial curve]"},
      {"smiles": "O=C(O)c1cc(-c2ccccc2)n(-c2ccc(Cl)cc2)n1", "Potency": "inconclusive: 39.8 µM [inhibitor, single point]"},
      {"smiles": "NS(=O)(=O)c1ccc(CCNc2ccn3nc(-c4ccc(OCCN5CCOCC5)cc4)cc3n2)cc1", "Potency": "inactive"},
      {"smiles": "Cn1c(=O)c2cc(NC(=O)Cc3cccnc3)ccc2n1-c1ccc2ccccc2c1", "Potency": "inconclusive: 10 µM [inhibitor, full curve]"},
      {"smiles": "CNc1nc(Oc2cccc(F)c2)c2sccc2n1", "Potency": "inconclusive: 50.1 µM [inhibitor, partial curve]"},
      {"smiles": "COc1ccc2[nH]c3nc(SCC(=O)NC4CC4)nnc3c2c1", "Potency": "inconclusive: 3.55 µM [inhibitor, full curve, poor fit]"},
      {"smiles": "Cc1nnc(N2C(=O)C(O)=C(C(=O)c3ccco3)C2c2ccc(F)cc2)s1", "note": "(stereo not given)", "Potency": "inactive"},
      {"smiles": "CCCCn1nnnc1C(c1cc2ccccc2o1)N(C)Cc1ccc(Cl)c(Cl)c1", "note": "(stereo not given)", "Potency": "inconclusive: 3.16 µM [inhibitor, full curve, poor fit]"},
      {"smiles": "O=C(CC[C@H]1O[C@@H](n2ccc(=O)[nH]c2=O)[C@H](O)[C@@H]1O)NCc1cccc2ccccc12", "Potency": "inconclusive: 79.4 µM [inhibitor, single point]"},
      {"smiles": "CCC(C)NC(=O)c1ccc2nc(-c3ccc(OC)c(OC)c3)c(-c3ccc(OC)c(OC)c3)nc2c1", "note": "(stereo not given)", "Potency": "inconclusive: 28.2 µM [inhibitor, partial curve]"},
      {"smiles": "Cc1ccc(OCc2nc3ccccc3n2C(C(=O)NC(C)(C)C)c2ccccc2)cc1", "note": "(stereo not given)", "Potency": "inconclusive: 31.6 µM [inhibitor, partial curve]"},
      {"smiles": "COc1cc(/C=C/C(=O)OCc2c(C)noc2C)ccc1OC(F)F", "Potency": "inactive"},
      {"smiles": "Cc1cc(S(=O)(=O)Nc2ccccc2C)ccc1F", "Potency": "inconclusive: 50.1 µM [inhibitor, partial curve]"},
      {"smiles": "c1ccc(C2=NN(c3ccccc3)C(c3ccco3)C2)cc1", "note": "(stereo not given)", "Potency": "inconclusive: 50.1 µM [inhibitor, partial curve]"},
      {"smiles": "COc1ccc(CNC(=O)c2cccc3c(-c4cccc(C(N)=O)c4)coc23)cc1OC", "Potency": "inconclusive: 70.8 µM [inhibitor, single point]"},
      {"smiles": "CCCCn1nnnc1C(c1cc2ccccc2o1)N(C)CCc1ccccc1", "note": "(stereo not given)", "Potency": "inconclusive: 16.8 µM [inhibitor, full curve]"},
      {"smiles": "CC12CCC3c4ccc(O)cc4CCC3C1CCC2=O", "note": "(stereo not given)", "Potency": "inactive"},
      {"smiles": "CC(=O)N[C@@H](Cc1c[nH]c2ccccc12)C(=O)OCc1cc(C(F)(F)F)cc(C(F)(F)F)c1", "Potency": "inconclusive: 44.7 µM [inhibitor, partial curve]"},
      {"smiles": "O=c1c2ccccc2ncn1-c1ccc(Cl)cc1Cl", "Potency": "inconclusive: 50.1 µM [inhibitor, partial curve]"},
      {"smiles": "CSc1ncnc2c1ncn2CCCN[C@H](C)c1cccc2ccccc12", "Potency": "inactive"},
      {"smiles": "COC(=O)C1(C(F)(F)F)N=C2Sc3ccccc3N2C(N2CCOCC2)=N1", "note": "(stereo not given)", "Potency": "inconclusive: 35.5 µM [inhibitor, partial curve]"},
      {"smiles": "COc1ccc(C(=O)NCCc2nnc3ccc(SCC(=O)NCc4ccccc4)nn23)cc1", "Potency": "inconclusive: 20 µM [inhibitor, single point]"},
      {"smiles": "COc1ccc(S(=O)(=O)Nc2ccc3c(c2)n(C)c(=O)n3C)cc1C", "Potency": "inconclusive: 56.2 µM [inhibitor, partial curve]"},
      {"smiles": "O=C(CSc1ccc(Br)c2cccc(Cl)c12)Nc1ccc(S(=O)(=O)Nc2nccs2)cc1", "Potency": "inconclusive: 39.8 µM [inhibitor, single point]"},
      {"smiles": "COc1cc(N=Nc2ccc(Br)cc2)cc(C=O)c1O", "Potency": "inactive"},
      {"smiles": "Nc1nc(NCc2ccco2)nc(N2CCCC2)c1[N+](=O)[O-]", "Potency": "inconclusive: 39.8 µM [inhibitor, partial curve]"},
      {"smiles": "CCOC(=O)c1cc2c(=O)n3cccc(C)c3nc2n(CCOC)c1=NC(C)=O", "Potency": "inconclusive: 44.7 µM [inhibitor, full curve, poor fit]"},
      {"smiles": "Cc1sc(NC(=O)C2=COCCO2)nc1-c1ccc(F)cc1", "Potency": "inconclusive: 112 µM [inhibitor, single point]"},
      {"smiles": "CCN(CC)c1ccc2c(-c3ccc(S(=O)(=O)O)cc3S(=O)(=O)[O-])c3ccc(=[N+](CC)CC)cc-3oc2c1", "Potency": "inconclusive: 89.1 µM [inhibitor, single point]"},
      {"smiles": "CCCOc1ccccc1C1NC(=O)NC(C)=C1C(=O)OCc1ccccc1", "note": "(stereo not given)", "Potency": "inconclusive: 56.2 µM [inhibitor, partial curve]"},
      {"smiles": "CCOc1cc(C2C(C(=O)OC)=CN(Cc3ccc(Cl)cc3)C=C2C(=O)OC)ccc1O", "Potency": "inconclusive: 3.16 µM [inhibitor, full curve, poor fit]"},
      {"smiles": "CCOc1ccccc1NC(=O)CN(c1cc(C)cc(C)c1)S(=O)(=O)c1c(C)noc1C", "Potency": "inconclusive: 79.4 µM [inhibitor, single point]"},
      {"smiles": "O=C(c1ccc(F)cc1)C(CN1CCOCC1)c1ccccc1", "note": "(stereo not given)", "Potency": "inactive"},
      {"smiles": "COCCNC(=O)COC(=O)c1cc(-c2ccc(OC)cc2)nc2ccccc12", "Potency": "inconclusive: 39.8 µM [inhibitor, single point]"},
      {"smiles": "COc1cccc(/C=C(/C#N)c2ccc(Cl)cc2)c1OCc1cccc(C(=O)O)c1", "Potency": "inconclusive: 56.2 µM [inhibitor, partial curve, poor fit]"},
      {"smiles": "COc1ccc(CN(C(=O)c2cccs2)c2nccs2)cc1OC", "Potency": "inconclusive: 44.7 µM [inhibitor, partial curve]"},
      {"smiles": "O=c1[nH]c(=S)[nH]c2c1[C@H](C1CC1)O[C@H](CCc1ccccc1)C2", "Potency": "inconclusive: 50.1 µM [inhibitor, partial curve]"},
      {"smiles": "CC(C)(C)c1ccc(CC(=O)N2CCC2(C)C(=O)NS(=O)(=O)c2ccccc2)cc1", "note": "(stereo not given)", "Potency": "inconclusive: 100 µM [inhibitor, single point]"},
      {"smiles": "Cn1c(CNC(=O)c2ccco2)nnc1SCC(=O)Nc1ccc(Br)cc1F", "Potency": "inactive"}
    ]}
  ]
}
